{
  "source": "PubChem BioAssay AID588342",
  "about": "(National Center for Advancing Translational Sciences (NCATS), 2011)",
  "note": "Hit rate of the full screen: of about 360,000 compounds, about 25,000 (6.9%) were called active. Inconclusive results, whose numbers are uncertain, are shown with a selection of clear calls. The call rests on the fitted dose curve; in most records, active means well fitted inhibition curve with a large enough effect; inconclusive means small, poorly fitted or top-dose-only effect; inactive means flat fitted curve, though single readings scatter. Potencies beside an inconclusive call are fits to weak or partial responses and may not hold up. Potency means the concentration at half of the fitted maximal effect; tags describe the fitted curve by direction and shape.",
  "data": [
    {"target": "Luciferin 4-monooxygenase (Photinus pyralis) (UniProt P08659)", "sequence (P08659 whole entry, looked up)": "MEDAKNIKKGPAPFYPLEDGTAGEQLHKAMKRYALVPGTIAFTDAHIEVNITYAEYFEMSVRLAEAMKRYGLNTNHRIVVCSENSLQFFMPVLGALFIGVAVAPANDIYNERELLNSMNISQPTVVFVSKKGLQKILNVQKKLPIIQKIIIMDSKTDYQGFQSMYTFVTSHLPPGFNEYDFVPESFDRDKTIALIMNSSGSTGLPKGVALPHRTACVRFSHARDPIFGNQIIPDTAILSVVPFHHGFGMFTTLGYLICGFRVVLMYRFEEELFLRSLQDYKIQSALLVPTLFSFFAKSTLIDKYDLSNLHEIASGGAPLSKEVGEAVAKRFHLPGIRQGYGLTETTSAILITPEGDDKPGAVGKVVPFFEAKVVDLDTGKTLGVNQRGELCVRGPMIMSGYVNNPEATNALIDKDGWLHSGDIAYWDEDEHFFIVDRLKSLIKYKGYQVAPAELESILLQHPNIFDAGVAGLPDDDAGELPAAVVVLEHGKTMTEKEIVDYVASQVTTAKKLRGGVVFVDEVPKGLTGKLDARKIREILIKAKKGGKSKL", "assay": "qHTS profiling assay for firefly luciferase inhibitor/activator using purifed enzyme and Km concentrations of substrates (counterscreen for miR-21 project); further: nearly all actives have a fitted effect of over 55% in size;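 on activity change, negative = inhibition: plate controls were vehicle for no effect and reference inhibitor for full effect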", "details": "purified FLuc, luminescence inhibition; activity change, negative = inhibition: at 57.5 µM (top of the series)", "method_in_brief": "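Purified P. pyralis luciferase (10nM final) with 10uM D-luciferin and 10uM ATP (Km levels) in 50mM Tris acetate pH 7.5, 10mM Mg acetate, 0.01% Tween-20, 0.05% BSA; qHTS 6-point titration, ~60 µM downward; luminescence read.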", "values": [
      {"compound": "COc1ccc(N2CCN(C(=O)c3nn(C)c4c3CS(=O)(=O)c3ccccc3-4)CC2)cc1", "Potency": "inconclusive: 21.3 µM [inhibitor, partial curve, poor fit]"},
      {"compound": "Cn1c(CNC(=O)c2ccc3c(c2)OCO3)nnc1SCC(=O)Nc1ccccc1F", "Potency": "inconclusive: 16.9 µM [inhibitor, partial curve]"},
      {"compound": "CC(C)(C)C1CCc2c(sc(N)c2C(N)=O)C1", "note": "(stereo not given)", "Potency": "inconclusive: 21.3 µM [inhibitor, partial curve, poor fit]"},
      {"compound": "COc1ccc(C(=O)C2CCCN(C(=O)CCc3ccccn3)C2)c(C)c1", "note": "(stereo not given)", "activity change, negative = inhibition": "inactive: 2.23%"},
      {"compound": "O=C(COc1ccc(-c2ccccc2)cc1)N/N=C/c1ccccc1Br", "Potency": "inconclusive: 37.9 µM [inhibitor, single point]"},
      {"compound": "Cc1snc(SCC(=O)c2ccc([N+](=O)[O-])cc2)c1C#N", "Potency": "inconclusive: 15.1 µM [inhibitor, partial curve]"},
      {"compound": "CC(C)C(NC(=O)c1ccc(C(C)(C)C)cc1)C(=O)OCC(=O)NC(=O)Cc1ccccc1", "note": "(stereo not given)", "Potency": "active: 21.3 µM"},
      {"compound": "Cc1nc2ncccn2c1-c1csc(Nc2ccc(O)cc2)n1", "Potency": "inconclusive: 37.9 µM [inhibitor, partial curve, poor fit]"},
      {"compound": "Cc1ccc(C(=O)NC(=S)Nc2cccc3nsnc23)cc1", "Potency": "inconclusive: 10.7 µM [inhibitor, partial curve]"},
      {"compound": "COC(=O)/C=C1/SC(=NC(=O)c2ccc(OC)cc2)NC1=O", "Potency": "active: 26.9 µM"},
      {"compound": "Cn1c(-c2cc3ccc(OC(=O)C(C)(C)C)cc3oc2=O)nc2ccccc21", "Potency": "inconclusive: 26.9 µM [inhibitor, single point]"},
      {"compound": "COc1ccc(C(=S)Nc2ccc(N(C)C)cc2)cc1", "Potency": "active: 1.51 µM"},
      {"compound": "Cc1cccc(NC(=O)Nc2ccc(Cl)cc2)n1", "Potency": "inconclusive: 2.39 µM [inhibitor, full curve]"},
      {"compound": "Cc1oc2cc(O)ccc2c(=O)c1-c1cnn(-c2ccccc2)c1", "Potency": "inconclusive: 12 µM [inhibitor, partial curve]"},
      {"compound": "O=[N+]([O-])c1ccccc1/C=N/N1CCN(Cc2ccccc2)CC1", "Potency": "inconclusive: 26.9 µM [inhibitor, partial curve, poor fit]"},
      {"compound": "CCOc1ccccc1NC(=O)NCc1noc2ccc(C)cc12", "Potency": "inconclusive: 37.9 µM [inhibitor, single point]"},
      {"compound": "O=C(c1ccc(-c2ccccc2)cc1)c1ccccc1C(=O)N1CCOCC1", "Potency": "inconclusive: 21.3 µM [inhibitor, partial curve]"},
      {"compound": "CCCn1c(N)c(C(=O)CSc2nc(C)cs2)c(=O)[nH]c1=O", "Potency": "inconclusive: 8.49 µM [inhibitor, partial curve, poor fit]"},
      {"compound": "Nc1c(C(=O)CSc2nc3ccccc3o2)c(=O)[nH]c(=O)n1C1CC1", "activity change, negative = inhibition": "inactive: -0.397%"},
      {"compound": "O=C(C1=C[C@H](c2ccccc2)C[C@H](OCc2ccc(CO)cc2)O1)N1CCN(Cc2ccccc2)CC1", "activity change, negative = inhibition": "inactive: -0.058%"},
      {"compound": "Cn1c(SCC(=O)c2ccccc2F)nnc1C1CC1", "Potency": "inconclusive: 19 µM [inhibitor, partial curve, poor fit]"},
      {"compound": "CC(C)c1ccc2oc(-c3cc(NC(=O)c4cccnc4)ccc3Cl)nc2c1", "Potency": "active: 10.7 µM"},
      {"compound": "CC(C)(C)n1ncc2c(=O)n(CC(=O)NCCc3ccccc3)cnc21", "activity change, negative = inhibition": "inactive: -4.57%"},
      {"compound": "CC(C)NC(=O)c1onc(CSc2ccc(C(C)C)cc2)c1C(=O)O", "Potency": "inconclusive: 26.9 µM [inhibitor, single point]"},
      {"compound": "COc1ccc(/C=N/NC(N)=S)cc1", "Potency": "inconclusive: 42.6 µM [inhibitor, partial curve, poor fit]"},
      {"compound": "COc1cccc(NC(=O)c2sc3nc(C)c(C(=O)Nc4ccc(C)cc4C)c(-c4ccc(C)o4)c3c2N)c1", "activity change, negative = inhibition": "inactive: -0.18%"},
      {"compound": "CC(C)(O)C1Cc2cc(/C=C/C(=O)O)c(O)cc2O1", "note": "(stereo not given)", "Potency": "inconclusive: 21.3 µM [inhibitor, single point]"},
      {"compound": "Cc1ccc(O)c(Nc2c3ccccc3nc3ccccc23)c1", "Potency": "inconclusive: 21.3 µM [inhibitor, partial curve, poor fit]"},
      {"compound": "NS(=O)(=O)c1ccc(NC(=S)NC2CCCCCC2)cc1", "Potency": "inconclusive: 26.9 µM [inhibitor, single point]"},
      {"compound": "O=C(Nc1cccc(Cl)c1)N1CCCCCC1", "Potency": "inconclusive: 15.1 µM [inhibitor, partial curve]"},
      {"compound": "CCc1ccc(S(=O)(=O)Nc2cccc(-c3ccc(OC)nn3)c2)s1", "Potency": "inconclusive: 13.5 µM [inhibitor, partial curve, poor fit]"},
      {"compound": "COc1ccc(NC(=O)CSc2nc3nc(C)cc(C)n3n2)cc1OC", "activity change, negative = inhibition": "inactive: 2.4%"},
      {"compound": "O=C(OCC(=O)c1c[nH]c2ccccc12)c1cccc([N+](=O)[O-])c1", "Potency": "active: 16.9 µM"},
      {"compound": "Cc1cccc(C(=O)NCC(=O)OCC(=O)N2CCc3ccccc32)c1", "activity change, negative = inhibition": "inactive: -19.6%"},
      {"compound": "Cc1ccsc1CN(C)C(=O)c1ccc(Oc2ccccc2)cc1", "Potency": "inconclusive: 26.9 µM [inhibitor, single point]"}
    ]}
  ]
}
